Laboratory results published in the supplement of paper PMC11417369.
Some of the results follow.

The sequences below were run on PF3D7_0420300 AP2 domain 1 (GST-tagged) (assay: gcPBM binding intensity (ln(normalized median fluorescence intensity)); higher = stronger DNA binding).
Method in brief: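 GST-tagged P. falciparum DNA-binding domains produced in E. coli were incubated for 1 h on an Agilent 4 × 180k array of primer-extended double-stranded 36-bp intergenic genomic probes with negative controls. Binding intensity is the highest Masliner-normalised natural-log median intensity across replicate spots of either probe orientation, with bound protein detected by Alexa488 anti-GST antibody at 488 nm.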

| Sequence | gcPBM binding intensity (ln) |
| --- | --- |
| ATAGTATTTTTTATTACACACAAATAAAAAGAAAAA [CACACA_site2087] | 9.38 |
| AAAATCTATATTAACACACACACAAAAAAAAAAAAA [CACACA_site6738] | 9.95 |
| TTTAAATATATTAATACACACACGATATGTACAAAA [CACACA_site539] | 9.58 |
| AAAAAATTTTGAAATTGTACATATATAAAAAATATA [XGTACX_site2629] | 8.96 |
| GAATAAATTGTATTGTGTACATATAAAAGCATCTAA [XGTACX_site8271] | 9.29 |
| TTTCTATAATATTCTACACACCAACAACAAACATAT [CACACA_site6409] | 9.64 |
| TATAAATATACAAAGGTGCATAAAAAGTTATGTTTT [GTGCAC_site9832] | 9.36 |
| GAATCACTAATTTTTTTACACACCACAATTTAATTT [CACACA_site8311] | 9.61 |
| TTTCGAATTAAAGCATGTGAAAATTTTCAAAAAATA [XGTACX_negctrl_site577] | 8.97 |
| ATAATAATATAATATTCACACAATTGAAATAGTGTA [CACACA_site6083] | 9.18 |
| ACAAAACATAATTGTTGTACAAAAAGAATTATATAT [XGTACX_site8422] | 9.39 |
| AAATAAAAATTACAAGCATGCATTTTCCTATTTGCA [TGCATGCA_site861] | 9.07 |
| GTGTAAAAATTAAAGTGTACACATATATATATATAT [XGTACX_site2251] | 9.35 |
| TGGATGAGGACATACACACACACATAAGTTGATACA [CACACA_site3423] | 9.98 |
| TTATATTTTAAGAAATGTACATGATATAATTATCAA [XGTACX_site8693] | 8.97 |
| AATGAAAAGGAACATACACACCCCATATAAATATAT [CACACA_site7588] | 9.8 |
| TATTTCTTATGAAGGACATGCAATATTATTTATCTC [TGCATGCA_site683] | 9.04 |
| TTTTTTTTAATTTTCTGTACAAATTTATATATACTA [XGTACX_site4251] | 9.25 |
| ATGTAGAAGTAATGCACACATATGTATATATATATA [CACACA_site2494] | 9.62 |
| GGTCTTTTTATGATATGTACTTATATAATATTATAT [XGTACX_site6458] | 9.59 |
| AACAGCATGAAGTAAAGTACTAGTTTTATTTATTTA [XGTACX_site1116] | 9.1 |
| AGGAAATTTTTTTTTTTTTTTTTTTTTTTTTTTTAC [TGCATGCA_negctrl_site170] | 8.71 |
| ATAATATATAATATAGTGCATTATTTATTAATTAAT [GTGCAC_site9852] | 9.16 |

| Sequence | gcPBM binding intensity (ln) |
| --- | --- |
| ATAGATGTCTTCATATGTACATAAATTCAAGTATAT [XGTACX_site7492] | 9.05 |
| TGATTATAAAAGTAGGTGCTACAAAAATTACACATT [GTGCAC_site9530] | 9.19 |
| TGATAAGTATACTAAAGTACATGAAAAATAACTTCC [XGTACX_site6908] | 9.24 |
| TCCTAATGGTTTAATTGTACAAAAAAAAAAAATATA [XGTACX_site322] | 8.85 |
| CAAAATATTATGAATTGTACATATTTTAAAACGTTT [XGTACX_site1614] | 9.15 |
| TATATATAATATGAATGTACACAAAAAGGTAATACA [XGTACX_site6202] | 9.46 |
| AAAAAAAAGAAATAGACACACATATATTTTTAAACA [CACACA_site3954] | 9.45 |
| TATAATTTTTTTGAATTATATATATATATATATAAT [XGTACX_negctrl_site26] | 8.86 |
| TGATATAAAATTAAAGTGCAAAAAAAAAATAAAAAA | 9.39 |
| ATAATATTATGAACCTGTACATAATTTTTCTTTTCT [XGTACX_site3377] | 9.09 |
| AGTATATTTCTAACTTGTACGAAATTAATAATTTAT [XGTACX_site6635] | 9.06 |
| ACAGCTCTAGGACATGCATGTTATATAGAAAAAGAG [TGCATGCA_site703] | 9.16 |
| TTCTTTATATAAACAAGTACATATAAAATACATATA [XGTACX_site8036] | 9.02 |
| AAGTTAATGTTTTGCGCACACTTCTTTTTAATATAA [CACACA_site3938] | 9.61 |
| TTCATTAAAGTTATTACACACAGTTCTTCAACCAAA [CACACA_site7613] | 9.29 |
| AAATACATATTTAGAAGTACATTTATACATTTAATA [XGTACX_site8871] | 9.23 |
| TATATATTAAGATGCACACACAAGAAGTAATTATAA [CACACA_site5726] | 9.82 |
| ATTTTTTCTTATAAAAAAGAAAAAGAAAAAGAAAAA [CACACA_negctrl_site1216] | 8.66 |
| AGACATATTCTTTTTACACACTTGAATAAAAAATAT [CACACA_site1205] | 9.11 |
| CATTTTATAAAAACAAGTACCCAACATATATATAAT [XGTACX_site5955] | 9.38 |
| TTTTTTTCTTAAAGATGTACTTTTTAAAAACAATCT [XGTACX_site986] | 8.79 |
| GATGAGGACAGACACACACACATAAGTTGATACATA [CACACA_site7580] | 9.89 |
| GTTTTTACTTTTATCTGTACATAATACTACCAATAT [XGTACX_site5414] | 9.47 |

| Sequence | gcPBM binding intensity (ln) |
| --- | --- |
| CTGTACACTTAAACGGTGCAAAAAGAAAAAAAAGAA | 9.21 |
| GTTGGGTAATTCGTAACACACATAAAATATATATAA [CACACA_site3986] | 9.42 |
| CACGCGCACCAACACACACACACACCCATATATATA [CACACA_site2204] | 10.3 |
| TGCCTATGACATGAATGTACATTAAAATTAAATAAA [XGTACX_site7126] | 8.9 |
| CACACTTGCTCCTGTTGTACATAACCATAAGCAACA [XGTACX_site2102] | 9.17 |
| TGAATATAACAAATATGTACTTAAAATTGTTATATT [XGTACX_site5679] | 9.12 |
| ATTATTAAAAATATGGGTACATATTATTGTTATATA [XGTACX_site1958] | 9.08 |
| AAAAAAAAAAAAAAATGTACATGACATGACATGACA [XGTACX_site4020] | 8.91 |
| TTATATTTTACAAATGCACACATAATTTTTTTTTTT [CACACA_site8890] | 9.28 |
| AAACTTTACATTACTTGTACATATATTCTATATAAT [XGTACX_site8640] | 9.46 |
| TAAAGAAATAAATACATACACACATATATATATATA [CACACA_site3363] | 9.46 |
| TTTGATAATAAGATATAATACTTAAATATATATATA [GTGCAC_negctrl_site339] | 8.85 |
| AAATATATATTCAAAAGTACACAATTTGTTAATAAT [XGTACX_site8917] | 9.25 |
| TATTTTACGCGGTTTATAATGACATGTTCTATATTT [CACACA_negctrl_site1184] | 9.43 |
| TAAATATATAAATACACACACACCAAAGCAATAGAT [CACACA_site5605] | 10.2 |
| TCCATATGCATGTATTGTACTGTAATATATTAAAAA [XGTACX_site472] | 9.09 |
| AAAAAAAAAAAAGAAACACACACATATATATATATA [CACACA_site8525] | 9.69 |
| AGCAGTCGACAGGACAGTACACAGTAGCCAGGAAAT [XGTACX_site4929] | 9.32 |
| TAATTAAATAAAAAAAAATATATATATATATATATA [XGTACX_negctrl_site616] | 9.01 |
| TTTTTTAAAAATAACTGTACAGAGGCTGTTAGGATA [XGTACX_site2521] | 9.19 |
| AGACAATATTAATAAGGTACACATATATATTAAAAA [XGTACX_site6709] | 9.42 |
| AGCCCTTTTTTTTTTTAGAATATTGCATAATTATAT [XGTACX_negctrl_site546] | 9.49 |
| TATATAAATATATCCACACACATACCTATATTAATA [CACACA_site6184] | 9.71 |

| Sequence | gcPBM binding intensity (ln) |
| --- | --- |
| GTATTGTATGGATGGGGTACTATATATATATATTTT [XGTACX_site1694] | 9.72 |
| TAAGGGAGAGATTTGTATCATAAGCAACTTTCAAAA [CACACA_negctrl_site1436] | 8.99 |
| TTATAATTAAATTTCACACAGTTCATAACATAATTA [CACACA_site5501] | 8.99 |
| TTTATATGTTTTAAGTGTACACATATAATGTATTTT [XGTACX_site3069] | 9.33 |
| ACTTTCAACATGAAGTTGCACTTTTTTTTTTTTCTT | 9.47 |
| TATTGAATAAAATGCACACGCATGCGTTATTTATTA [CACACA_site3479] | 9.17 |
| AAACGTATTCTATAAAGTACATTATTATAGTAGACC [XGTACX_site8068] | 9.28 |
| TAAAAAAATTATATTTGTACATATTAATATAGCCTT [XGTACX_site4833] | 8.96 |
| ATATGTCCATATAGTAAATGTTACATTTTAAAGCGC [XGTACX_negctrl_site168] | 9.28 |
| AAAATATTTATTTTTTGTACACATAAAAACGCACTT [XGTACX_site4132] | 9.14 |
| CATATTTTGTGAAAAAGTACATATATATATATATAT [XGTACX_site6295] | 9.04 |
| ATTCTTAAAAAATAAGTGCAAAATAATTAAATAAAT | 9.2 |
| AGAATGGTTTATAAAGGTACGTAATTTTTAATTTTA [XGTACX_site383] | 9.06 |
| TTATATAAAGAATGTACACACAGAAATGCACAGACA [CACACA_site5288] | 9.81 |
| AATATGTACAGACATACACACATATTTATATTTATA [CACACA_site6694] | 9.47 |
| GCTTATATTAATAAGGTGCTTTTTATTTCGTGTGTA [GTGCAC_site9649] | 9.65 |
| TCATAGTATAAACACACACACACACCCATATATATA [CACACA_site8512] | 10.3 |
| TAGTATTAAATATATACACACATATATACCTATAGA [CACACA_site5219] | 9.58 |
| AAAATGTAATATTGGGTGCACAATAAGTTTGATGTC | 9.57 |
| TGAAAAGATAAAAAAAGTACACACACACATATATAT [XGTACX_site6504] | 10.2 |
